Measured values from the supplement of paper PMC4967469.
Lines with a small IC50 respond at low doses; a fit beyond the top or the lowest dose is shown as a bound at that dose. For AUC the same curve is integrated over the 256-fold range of doses and scaled to a fraction; the more sensitive the line, the further below 1. For some of these results: Where the top dose is marked as inferred, it was calculated from the reported fits. For some of these results: Drugs with an entry number were screened twice under separate entries, and the two screens often disagree.

Tests used:
Assay in all cases: Viability of human cancer cell lines after 72 h of drug (GDSC screen)
Epothilone B = compound: C/C(=C\c1csc(C)n1)[C@@H]1C[C@@H]2O[C@]2(C)CCC[C@H](C)[C@H](O)[C@@H](C)C(=O)C(C)(C)[C@@H](O)CC(=O)O1 [Epothilone B]; conditions: top dose 0.032 µM; top dose inferred
Method: (§1)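 Human cancer cell lines in 384-well plates, medium with 10% serum, drug for 72 h over a 256-fold dose range (nine 2-fold or five 4-fold steps up to the top dose). Adherent lines were fixed and stained with the nucleic acid dye Syto60, suspension lines read with resazurin; signal relative to control wells, capped at 0 and 100%. One two-parameter sigmoid per drug and line, fitted in a mixed model over all curves with the slope shared within a line.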

PHA-793887 = compound: CC(C)CC(=O)Nc1n[nH]c2c1CN(C(=O)C1CCN(C)CC1)C2(C)C [PHA-793887]; conditions: top dose 10.24 µM
Method: as §1

PLX4720 = compound: CCCS(=O)(=O)Nc1ccc(F)c(C(=O)c2c[nH]c3ncc(Cl)cc23)c1F [PLX4720]; conditions: top dose 10 µM
Method: as §1

Pyrimethamine = compound: CCc1nc(N)nc(N)c1-c1ccc(Cl)cc1 [Pyrimethamine]; conditions: top dose 20 µM; top dose inferred
Method: as §1

AZD-0530 = compound: CN1CCN(CCOc2cc(OC3CCOCC3)c3c(Nc4c(Cl)ccc5c4OCO5)ncnc3c2)CC1 [AZD-0530]; conditions: top dose 2 µM
Method: as §1

Y-39983 = compound: C[C@@H](N)c1ccc(C(=O)Nc2ccnc3[nH]ccc23)cc1 [Y-39983]; conditions: top dose 20 µM; top dose inferred
Method: as §1

TPCA-1 = compound: NC(=O)Nc1sc(-c2ccc(F)cc2)cc1C(N)=O [TPCA-1]; conditions: top dose 20 µM
Method: as §1

[1] = screen: GDSC drug entry 1371, top dose inferred

Cell Line	AUC (Epothilone B)	IC50 (Epothilone B) [nM]	AUC (PHA-793887)	IC50 (PHA-793887) [nM]	AUC (PLX4720; screen: GDSC drug entry 1036)	IC50 (PLX4720; screen: GDSC drug entry 1036) [µM]	AUC (PLX4720; [1])	IC50 (PLX4720; [1]) [µM]	AUC (Pyrimethamine)	IC50 (Pyrimethamine) [µM]	AUC (AZD-0530)	IC50 (AZD-0530) [nM]	AUC (Y-39983)	IC50 (Y-39983) [µM]	AUC (TPCA-1)	IC50 (TPCA-1) [µM]
ML-2 (acute myeloid leukaemia, suspension)	0.542	2.57	0.42	397	0.942	> 10	0.988	> 10	0.817	9.66	0.989	> 2000	0.598	2.25	0.692	4.01
MLMA (hairy cell leukaemia, semi-adherent)	0.796	15.2	0.357	257	0.944	> 10	0.971	> 10	0.985	> 20	0.953	> 2000	0.868	18.6	0.419	0.748
MMAC-SF (melanoma, adherent)	0.812	18	0.985	> 10200	0.518	0.702	0.444	0.437	0.987	> 20	0.985	> 2000	0.987	> 20	0.986	> 20
MN-60 (B-cell leukaemia, suspension)	0.972	> 32	0.489	598	0.988	> 10	0.987	> 10	0.982	> 20	0.982	> 2000	0.964	> 20	0.834	13.7
MOLM-13 (acute myeloid leukaemia, suspension)	0.636	4.62	0.177	74	0.966	> 10	0.929	> 10	0.738	5.67	0.9	> 2000	0.54	1.6	0.368	0.553
MOLP-8 (myeloma, suspension)	0.537	2.51	0.239	117	0.987	> 10	0.985	> 10	0.987	> 20	0.986	> 2000	0.866	16.7	0.54	1.6
MOLT-4 (lymphoblastic leukaemia, suspension)	0.555	2.75	0.695	1990	0.942	> 10	0.966	> 10	0.766	6.09	0.956	> 2000	0.893	15.9	0.757	5.73
MONO-MAC-6 (acute myeloid leukaemia, suspension)	0.811	18.2	0.496	623	0.912	> 10	0.937	> 10	0.834	14.1	0.955	> 2000	0.839	14.9	0.544	1.66
MSTO-211H (mesothelioma, adherent)	0.988	> 32	0.881	8990	0.984	> 10	0.99	> 10	0.784	–	0.923	> 2000	0.991	> 20	0.964	> 20
MV-4-11 (leukaemia, suspension)	0.478	1.77	0.147	69.8	0.932	> 10	0.96	> 10	0.851	11.3	0.962	> 2000	0.687	3.74	0.54	1.58
MZ1-PC (pancreas, adherent)	0.343	0.658	0.408	336	0.959	> 10	0.832	8.67	0.897	> 20	0.856	> 2000	0.877	> 20	0.446	0.858
MZ7-mel (melanoma, adherent)	0.725	8.96	0.987	> 10200	0.846	7.72	0.778	4.2	0.691	4.4	0.987	> 2000	0.984	> 20	0.841	14.6
Mo-T (hairy cell leukaemia, suspension)	0.976	> 32	0.357	256	0.982	> 10	0.966	> 10	0.988	> 20	0.986	> 2000	0.988	> 20	0.523	1.44
NALM-6 (B-cell leukaemia, suspension)	0.524	2.29	0.16	75.3	0.976	> 10	0.977	> 10	0.841	10.7	0.991	> 2000	0.487	1.16	0.372	0.593
NB5 (neuroblastoma, adherent)	0.752	10.8	0.953	> 10200	0.986	> 10	0.959	> 10	0.982	> 20	0.871	1930	0.985	> 20	0.852	15.8
NB6 (neuroblastoma, adherent)	0.75	12.6	0.874	> 10200	0.965	> 10	–	–	0.976	> 20	0.956	> 2000	0.947	> 20	0.693	4.97
NB7 (neuroblastoma, adherent)	0.717	8.49	0.53	777	0.986	> 10	0.883	> 10	0.927	> 20	0.926	> 2000	0.908	> 20	0.766	7.67

Cell Line	AUC (Epothilone B)	IC50 (Epothilone B) [nM]	AUC (PHA-793887)	IC50 (PHA-793887) [nM]	AUC (PLX4720; screen: GDSC drug entry 1036)	IC50 (PLX4720; screen: GDSC drug entry 1036) [µM]	AUC (PLX4720; [1])	IC50 (PLX4720; [1]) [µM]	AUC (Pyrimethamine)	IC50 (Pyrimethamine) [µM]	AUC (AZD-0530)	IC50 (AZD-0530) [nM]	AUC (Y-39983)	IC50 (Y-39983) [µM]	AUC (TPCA-1)	IC50 (TPCA-1) [µM]
NB10 (neuroblastoma, adherent)	0.746	9.93	0.957	> 10200	0.986	> 10	0.987	> 10	0.988	> 20	0.934	> 2000	0.954	> 20	0.772	7.56
NB13 (neuroblastoma, adherent)	0.332	0.726	0.95	> 10200	0.801	4.23	0.982	> 10	0.982	> 20	0.94	> 2000	0.87	15.2	0.729	5.12
NB69 (neuroblastoma, adherent)	0.758	9.93	0.921	> 10200	0.99	> 10	–	–	0.981	> 20	0.833	1100	0.897	19.9	0.514	1.36
NB(TU)1-10 (neuroblastoma, adherent)	0.559	2.83	0.98	> 10200	0.97	> 10	0.993	> 10	0.938	> 20	0.968	> 2000	0.862	13.5	0.659	3.24
NB-4 (acute myeloid leukaemia, suspension)	0.397	1.11	0.121	56	0.975	> 10	0.984	> 10	0.857	11.8	0.991	> 2000	0.836	9.99	0.439	0.877
NCI-H64 (small cell lung carcinoma, suspension)	0.747	8.09	0.609	1180	0.992	> 10	–	–	0.993	> 20	0.996	> 2000	0.901	14	0.906	14.5
NCI-H69 (small cell lung carcinoma, suspension)	0.803	18.1	0.81	6160	0.973	> 10	0.967	> 10	0.959	> 20	0.982	> 2000	0.986	> 20	0.979	> 20
NCI-H82 (small cell lung carcinoma, suspension)	0.876	28.8	0.796	4520	0.87	8.45	0.962	> 10	0.797	8.88	0.987	> 2000	0.943	> 20	0.822	10.9
NCI-H211 (small cell lung carcinoma, adherent)	0.495	1.93	0.642	1560	0.98	> 10	0.963	> 10	0.863	16.5	0.97	> 2000	0.875	18.7	0.733	5.66
NCI-H226 (lung squamous cell carcinoma, adherent)	0.83	21.4	0.866	9910	0.987	> 10	0.983	> 10	0.98	> 20	0.979	> 2000	0.847	15.8	0.665	3.69
NCI-H322M (lung adenocarcinoma, suspension)	0.987	> 32	0.945	> 10200	0.888	> 10	0.957	> 10	0.953	> 20	0.987	> 2000	0.983	> 20	0.928	> 20
NCI-H345 (small cell lung carcinoma, suspension)	0.986	> 32	0.924	> 10200	0.985	> 10	0.989	> 10	0.984	> 20	0.988	> 2000	0.99	> 20	0.974	> 20
NCI-H510A (small cell lung carcinoma, semi-adherent)	0.782	12.2	0.808	4770	0.985	> 10	–	–	0.965	> 20	0.958	> 2000	0.945	> 20	0.852	13.6
NCI-H524 (small cell lung carcinoma, suspension)	0.803	13.9	0.498	633	0.974	> 10	0.99	> 10	0.911	> 20	0.949	> 2000	0.99	> 20	0.881	17.2
NCI-H526 (small cell lung carcinoma, suspension)	0.712	7.69	0.371	287	0.988	> 10	0.989	> 10	0.796	8.91	0.99	> 2000	0.974	> 20	0.761	6.82
NCI-H716 (large intestine, suspension)	0.979	> 32	0.926	> 10200	–	–	0.959	> 10	0.935	> 20	0.974	> 2000	0.964	> 20	0.738	7.29
